Test results reported in PubChem BioAssay AID1508624 (National Center for Advancing Translational Sciences (NCATS), 2021).
The campaign covered roughly 48,000 compounds. About 120 (0.25%) were called active. Roughly 4% stayed inconclusive and do not appear here. Calls follow the shape of the dose curve; as a rule, active = well fitted activation curve with a large enough effect; inconclusive = small, poorly fitted or top-dose-only effect, or another doubt; inactive = no such curve, though single readings can be large or run the other way. This is one part of the list.

Assay: Primary qHTS for Identification of Small Molecule Activators of Huntingtin-Antisense Promoter Activity; also: nearly all actives have a fitted effect of over 55% in size
Details: HEK293 HTT-AS promoter firefly luciferase reporter (activity 0% = vehicle and -100% = no light), 24 h; series mostly up to 57.5 µM; activity change, positive = activation: at the top concentration
Procedure, shortened: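 HEK293 Fluc reporter, 2,500 cells/well, 24 h pre-culture; cpds up to 57.5 uM final, 24 h 37 degrees C; Dual-Glo, 10 min RT; normalized vehicle = 0%, zero RLU = -100%.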

Activity change, positive = activation, inactive:
O=C(Cn1c(=O)n2nc(-c3cccc(F)c3)nc2c2ccccc21)N1CCN(c2ccc(F)cc2)CC1 -0.146%
Cc1cccc(Cn2nnc3c(=O)[nH]c(C4CCCN(C(=O)c5ccccc5Cl)C4)nc32)c1 (centres undefined) -16.4%
Cc1cccc(N2CCN(C(=O)c3noc4c3CCCCC4)CC2)c1C -6.99%
COc1ccccc1NC(=O)c1cn(-c2ccccc2)nc1-c1ccccc1 -23.7%
Cc1cc(C(=O)C(=O)Nc2nncs2)c(C)n1-c1ccc(Cl)cc1 4.76%
CCc1ccc(NC(=O)Cn2c(=O)n(-c3cc(OC)c(OC)c(OC)c3)c(=O)c3ccccc32)cc1 -14.2%
CC(NC(=O)c1ccc(F)cc1)c1nc2ccccc2[nH]1 (centres undefined) -10.6%
COc1ccc(N2CCN(C(=O)CNS(=O)(=O)c3ccc(Br)s3)CC2)cc1 -29.7%
N#Cc1nc(/C=C/c2ccc(F)cc2)oc1NCc1ccc(F)cc1 4.81%
Cc1ccc(-n2c(=O)c3c(C)c(C)sc3n(Cc3ccc(F)cc3Cl)c2=O)cc1C 7.5%
COc1ccc(CCNC(=O)Cc2c(C)c3cc4c(C)coc4cc3oc2=O)cc1OC -5.02%
Oc1ccc(-c2nc3ccc(Cl)cn3c2Nc2ccc3c(c2)OCO3)cc1 0.0967%
COc1cc(C(=O)NCc2nc3cccnc3n2Cc2ccc(C)cc2)cc(OC)c1OC -5.89%
CC(=O)c1ccc(NC(=O)Cn2ncc3c4ccccc4n(Cc4ccccc4)c3c2=O)cc1 -16.8%
COc1ccc(N(C(=O)c2ccccc2)S(=O)(=O)c2ccc3c(c2)n(C)c(=O)n3C)cc1 -9.09%
O=C(NCc1ccc(Cl)cc1)C1CCN(S(=O)(=O)c2ccccc2)CC1 -16.5%
O=C1CC(=O)Nc2cc(S(=O)(=O)N3CCOc4ccc(Cl)cc43)ccc2N1 -12.4%
CCc1ccc(S(=O)(=O)c2cn(CC)c3cc(N4CCCCC4)c(F)cc3c2=O)cc1 -8.62%
COc1ccc2nc(NC(=O)c3cc(=O)c4cc(C)cc(C)c4o3)sc2c1 7.83%
COc1ccc2c(CNCCc3cccs3)c(C(=O)O)n(Cc3cccc(F)c3)c2c1 -27.9%
COc1cc(OC)c(NC(=O)C2CCN(S(=O)(=O)c3ccc4c(c3)oc(=O)n4C)CC2)cc1Cl -18.6%
Cc1ccc(CNC(=O)CN2CCN(Cc3ccc(F)cc3Cl)C2=O)cc1 0.594%
Nc1c(C(=O)NCc2ccc(Cl)cc2)sc2nc(-c3ccc(F)cc3)ccc12 -9.59%
CCc1ccc(Nc2sc(C(=O)c3ccc(F)cc3)c(N)c2S(=O)(=O)c2ccccc2)cc1 -18.3%
COc1ccc(C(=O)N2CCN(CC(=O)N3CCOCC3)CC2)cc1 -1.95%
COc1ccc(OC)c(NC(=O)CCNS(=O)(=O)c2ccc3c(c2)oc(=O)n3C)c1 -5.49%
CCOc1ccccc1C(=O)NCc1nc2cccnc2n1Cc1ccc(C)cc1 -24.6%
CCOc1cc(CNC(=O)c2ccc3c(c2)N(C)C(=O)C2CCCCN32)ccc1OC (centres undefined) -5.94%
O=C(CNC(=O)c1ccc(F)cc1)OCc1cc(=O)n2nc(C3CCCCC3)sc2n1 0.512%
COc1ccc(OC)c(NC(=O)CN2CCCN(Cc3ccccc3Cl)S2(=O)=O)c1 -25.4%
CN1CCC(COc2cnc(-c3cccc(Cn4nc(-c5cccc(C#N)c5)ccc4=O)c3)nc2)CC1 -43%
Cc1ccc(N2CCN(C(=O)c3cnn(-c4ccc(C)c(C)c4)c3C3CCNCC3)CC2)c(C)c1 -22%
Cc1ccc(-n2ncc3c(NC4CCCCC4)ncnc32)cc1Cl -28%
COc1ccc(CNC(=O)CCCn2nc(C)c3c(C)n(-c4ccc(C)cc4)nc3c2=O)cc1OC -5.77%
O=C(c1ccc2c(Cl)c3c(nc2c1)CCCC3)N1CCN(c2cccc(C(F)(F)F)c2)CC1 -14.4%
CCN(c1ccccc1)c1nnc(NC(=O)Nc2ccc(Br)c(C)c2)s1 0.13%
O=C(CSc1nccn1Cc1ccco1)Nc1cc(C(F)(F)F)ccc1Cl -6.18%
O=C(CN1C(=O)COc2ccc(S(=O)(=O)N3CCCCCC3)cc21)N1CCN(c2ccccc2F)CC1 -15.7%
CCOc1ccc(CNC(=O)CCS(=O)(=O)c2cc3c4c(c2)CCN4C(=O)CC3)cc1OC -8.01%
CC(C)c1cc(C(=O)N2Cc3ccc(CN4CCN(C)CC4)cc3C2)c(O)cc1O -58.4%
Cc1ccc(S(=O)(=O)c2cn(C)c3cc(N4CCCCCC4)c(F)cc3c2=O)cc1 -9.35%
Cc1ccccc1NC(=O)c1ccc2nc(Cc3ccccc3)oc2c1 12.2%
CC(=O)c1ccc(NS(=O)(=O)c2cc(-c3cnc(C4CC4)o3)ccc2C)cc1 -34.8%
O=C(CCSCc1cnn(-c2ccccc2)c1-n1cccc1)NCc1ccccc1F -33.3%
CCOc1ccc(NC(=O)c2cc3c(-c4ccccc4F)nn(C)c3s2)cc1 -3.21%
COc1ccccc1C(=O)Nc1c(C(=O)N(CCN(C)C)Cc2ccco2)oc2ccccc12 -23.8%
Cc1ccc(Cn2c(=O)n(-c3ccccc3)c(=O)c3ccc(C(=O)NCc4ccco4)cc32)cc1 -19.5%
C=Cc1ccc(Cn2c(C(=O)O)c(CNCc3cccs3)c3ccc(C)cc32)cc1 -40.8%
Cn1c(SCc2ccc(F)cc2)nc2c([nH]c3ccccc32)c1=O -11.4%
COc1cccc(CNC(=O)C2CCN(c3nc4ccc(Cl)cc4[nH]3)CC2)c1 -22%
CCCCc1cc(=O)oc2cc(C)c3c(C)coc3c12 -12.4%
CSc1ncc(Cl)c(C(=O)Nc2ccc(S(=O)(=O)N3CCC(C)CC3)cc2)n1 -26.4%
CCOC(=O)c1cccc(NC(=O)c2ccc3c(c2)nnn3C2CCCC2)c1 -0.939%
Cc1ccc(C2c3c(-c4ccccc4O)n[nH]c3C(=O)N2CCCO)cc1 (centres undefined) -33.4%
O=C(NCCn1cc(SCc2ccc(F)cc2)c2ccccc21)c1c(F)cccc1F -31.2%
Cn1cnc(S(=O)(=O)N2CCCC(C(=O)Nc3ccc(F)cc3Cl)C2)c1 (centres undefined) -11.6%
Cc1ccc(Cn2c(C(=O)Nc3cccc(Cl)c3)cc3sccc32)cc1 -15.4%
Cn1nnnc1SCCNCc1ccccc1OCc1ccccc1F -27.7%
COc1cc(C(=O)NC2CCCNC2)cc(OC)c1OC (centres undefined) 2.57%
COc1ccc2c(c1)CC(NC(=O)Nc1cc(Cl)ccc1OC)CO2 (centres undefined) -28.1%
CSc1nc(C)cc(Nc2c(C)cc(C)cc2C)n1 -14.7%
COc1cccc(C(=O)Nc2ccc(Cl)c(-c3nc4ccccc4[nH]3)c2)c1 -22%
CCc1ccc(OCCCSc2nc(-c3ccc(C(C)(C)C)cc3)nc3cc(=O)[nH]n23)cc1 -16.9%
CC(=O)c1ccc(N2CCN(S(=O)(=O)c3ccc4c(c3)CC(C)N4C(=O)C3CCC3)CC2)cc1 (centres undefined) -20.1%
COC(=O)c1ccc(NS(=O)(=O)c2ccc(-n3cccn3)cc2)cc1 -18.5%
CC1=C(C(=O)Nc2ccccc2C)C(c2ccncc2)n2nc(SCc3ccccc3)nc2N1 (centres undefined) -5.48%
CCN1CCN(c2cc(C)c3cc(NC(=O)c4cccc(C(F)(F)F)c4)ccc3n2)CC1 0.383%
COc1cccc(CSc2nc3n(n2)C(c2cccs2)C(C(=O)Nc2ccccc2C)=C(C)N3)c1 (centres undefined) -5.25%
COc1cn(CC(=O)Nc2ccc(F)cc2)c(CN2CCCCC2)cc1=O -6.65%
CCOC(=O)c1c(N)n(-c2ccc(Cl)c(Cl)c2)c2nc3ccccc3nc12 -6.71%
Cc1cccc(Cn2c(CN3CCC(C(=O)NCc4cccnc4)CC3)cc3ccccc32)c1 -22.9%
Cc1ccc(NC(=O)Cn2c(=O)n(-c3ccc(Cl)c(Cl)c3)c(=O)c3c(C)c(C)sc32)c(C)c1 1.71%
CCOC(=O)c1ccc(NC(=O)CC2C(=O)N(c3cccc(OC)c3)C(=O)N2C2CCCCC2)cc1 (centres undefined) -15.5%
Cc1ccc(OCCn2cc(C(=O)C3CCCCC3)c3ccccc32)cc1 -30.4%
CCOC(=O)c1c(C)oc2nc(C)nc(N3CCN(c4ccc(C(C)=O)cc4)CC3)c12 19.7%
CC(C)(C)OC(=O)N1CCC(c2c(C(=O)NCc3ccc(F)cc3)cnn2-c2ccc(F)cc2)CC1 -2.49%
COc1cccc(C(=O)N(Cc2sccc2C)C2CCS(=O)(=O)C2)c1 (centres undefined) -7.71%
COc1ccc(C(=O)Nc2cc(-c3cccc(C)c3)nn2-c2ccccc2)cc1 -0.403%
CCN(CC)CCNC(=O)c1sc2nc3n(c(=O)c2c1C)CCCCC3 -1.58%
COc1ccc(OCC2c3cc(OC)c(OC)cc3CCN2C(=O)c2ccc(F)cc2)cc1 (centres undefined) -18.5%
COc1ccc2cc3cc(C(=O)N4CCN(c5ccc(C(C)=O)cc5)CC4)sc3nc2c1Cl -18.4%
Cc1ccc(-c2cn3c(n2)sc2cc(C(=O)NCCCN4CCCCC4)ccc23)cc1 -51.3%
O=S(=O)(NCc1nc2cccnc2n1Cc1ccc(F)cc1)c1ccc2c(c1)CCCC2 -26.2%
CCCC(=O)O[C@]1(C(=O)CC)CC[C@H]2[C@@H]3CCC4=CC(=O)CC[C@]4(C)[C@H]3[C@@H](O)C[C@@]21C -12.1%
O=S(=O)(NCCc1csc2nc(-c3ccc(F)cc3)nn12)c1ccc(Br)cc1 -29.7%
Cc1cc(NC(=O)Cn2c(=O)nc(-c3ccccc3F)c3cc(Cl)ccc32)ccc1Br -21.9%
Cc1ccc(C)c(NC(=O)Cn2cc(C(=O)C3CCCCC3)c3ccccc32)c1 -27.5%
O=C(c1ccc2c(c1)N(Cc1cccc(Cl)c1)C(=O)c1ccccc1S2(=O)=O)N1CCCCC1 -30.3%
Cc1ccc2[nH]c3c(=O)n(CC(=O)N(C)c4cc(Cl)ccc4C)ncc3c2c1 -33.4%
COc1cccc(NC(=O)c2oc3ccccc3c2NC(=O)c2ccc(C(F)(F)F)cc2)c1 21.2%
O=C(CN1CCCN(Cc2ccc(Cl)cc2)S1(=O)=O)Nc1ccccc1F -10.9%
COc1cccc2c1Oc1ncccc1N(C(=O)CCC(=O)NCc1ccc(N(C)C)cc1)C2 -5.08%
COc1ccc(-n2c(=O)c3c4c(sc3n(Cc3ccccc3)c2=O)CN(C(C)=O)CC4)cc1OC -26.2%
CCOC(=O)c1c(C)[nH]c(C)c1S(=O)(=O)N1CCC(C(=O)N2CCN(c3ccc(Cl)cc3)CC2)CC1 -12.5%
